The list shows a part of the results.
test system: PfAP2-HC AP2 domain (GST-tagged); experiment: gcPBM binding intensity (ln(normalized median fluorescence intensity)); higher = stronger DNA binding
In short: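 Each value is the highest Masliner-normalised natural-log median intensity across replicate spots of either orientation of a probe. The probes were primer-extended double-stranded 36-bp intergenic genomic sequences on an Agilent 4 × 180k array, alongside negative controls, exposed for 1 h to GST-tagged P. falciparum DNA-binding domains expressed in E. coli. Bound protein was picked up with Alexa488 anti-GST antibody and scanned at 488 nm.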

Row | Sequence | gcPBM binding intensity (ln)
1 | ATAAAAATATTTATTACACACATAAGCAAAAAAAAA [CACACA_site3484] | 9.82
2 | TATTTTTATTTTTAAACCATATATATATATATATAT [CACACA_negctrl_site1560] | 9.71
3 | TATAGTTTCATTCTTTGTACATATATATTATTATTA [XGTACX_site8527] | 9.77
4 | CATACATATATACATACACACACATATAACCAATGT [CACACA_site8679] | 10.2
5 | TTTGTATTACGTTTGTGTACATATACAATGTGTTTT [XGTACX_site7708] | 9.83
6 | TCCATGCATTGACACACACACAAAAAAAAATTCTTT [CACACA_site7847] | 9.96
7 | TTTATTTATTTATGGACACACATACAAATCTTCCAG [CACACA_site4676] | 9.73
8 | AATAATAATGCTTTAACTTTGTTGTTATTTAGAATA [CACACA_negctrl_site1144] | 9.44
9 | TATAAATAAAAGTGTACACACATTAAAATCAAACGT [CACACA_site5316] | 10.1
10 | ATATGTACAAAATAAGCACACACAAAAAAAAAAAAA [CACACA_site8984] | 10.1
11 | AAAAAAAAAAAAAATATATATATATATATATATATA [CACACA_negctrl_site540] | 10
12 | TTTTTTTTTTTTTTTTGTACATAAATTTTTATTAGA [XGTACX_site6409] | 9.08
13 | TTTTTTTTTTTTTTTGCACACTTAAATTTGGTGGCT [CACACA_site5319] | 9.5
14 | GCTTAATACAGAATAACACACAAAATAAATAAATAA [CACACA_site4041] | 9.97
15 | CATATAATAAATAATTGTACTTGATATAATATTATG [XGTACX_site3562] | 9.56
16 | TCTTGATTAACTTAAAAAAAAAAAAAAAAAAAAAAA [CACACA_negctrl_site458] | 8.96
17 | GACATATATACCAAACGTACATATGTGCAAGCATAA [XGTACX_site3089] | 9.72
18 | TTGGCTATAGCCAATTGTACTTTTTCTCTTTGGCTT [XGTACX_site1119] | 9.5
19 | TATATTTGTGCGTGTACACATTTGAAAAAATATATA [CACACA_site5079] | 9.61
20 | ATAAATTATAATAACTGTACAAAAATAATATATTCA [XGTACX_site1856] | 9.72
21 | AATAATAATAAAAAGGTGCTGAAATATTTTTATTAT [GTGCAC_site9763] | 9.66
22 | TATATAATTATTTTTTGTACTCATAATAATATGAAA [XGTACX_site289] | 9.37

Row | Sequence | gcPBM binding intensity (ln)
23 | ATTATTAAGGTTTATTCAAAAAAGACGTTTTTAAAT [CACACA_negctrl_site1059] | 9.34
24 | AGACACGTATACGATGCACACGTATGCTTTATATAT [CACACA_site9363] | 9.83
25 | TATGAGAAAAAAAGTACATGCACAAAATGTATATGT [TGCATGCA_site789] | 9.79
26 | CAACATTGTTCCTATTGTACATGAACTGTTCATACG [XGTACX_site4070] | 9.61
27 | ATTATATAAACCAAATGTACAAAAAGGTCGTAGTGG [XGTACX_site1298] | 10.2
28 | TATAATATATGTATATGTACTTATGTTGAGAAACAT [XGTACX_site2117] | 9.49
29 | GAATAATATATATGTTCACACATGGTCTTTATTATA [CACACA_site5457] | 9.78
30 | GTTATATAAACATATGCATGTGAAGTGTTTATTAAT [TGCATGCA_site183] | 9.8
31 | CTTATTTACTATTTTTCACACATTACAGATAAACAA [CACACA_site6095] | 9.53
32 | TAAGTTTTGTTTTTTTGTACTCATTCATACTATCAT [XGTACX_site3638] | 9.77
33 | TAAATATATATATATAGTACAATATAATTATGATAT [XGTACX_site258] | 9.75
34 | TCATTGAAAAAAATCTGTACTGACTATATAGTTGCA [XGTACX_site1566] | 9.4
35 | TATATATATATAATTGCACACATCAAGTTTGATGTT [CACACA_site1288] | 10.2
36 | GTTGTATACAATAATGTGCACATATTAATTTGAACT | 9.88
37 | AAATGTACAGGACGCACACACATATTTATATTTATA [CACACA_site7689] | 10.2
38 | TTTTTTTTTCCTTTTTTTTAAATATTAAAAATGGGA [TGCATGCA_negctrl_site494] | 9.25
39 | TTTTACATCATATATAGTACATATATTATACATATA [XGTACX_site8590] | 9.66
40 | TATATATATATAAGTAGTACAATAATATATTATTTT [XGTACX_site6450] | 9.75
41 | AATATAATATTATATAGTACATATTTCTTTTATTTT [XGTACX_site22] | 9.68
42 | TCTTGATACAAACATTTAAATAAATAAATAAAAAAA [GTGCAC_negctrl_site41] | 9.32
43 | AAAATACACGCATACACACACACACCGACACATATA [CACACA_site4523] | 10.7
44 | TGTTGTGATATATTAAAATCGTCCCTTATAATTTTA [GTGCAC_negctrl_site595] | 9.44

— the supplement of paper PMC11417369
